PubChem BioAssay (NCATS)
“And” between values parts separate entries of the source, which are not always exact repeats. Equal entries are not always repeated. The shares of active, inactive and inconclusive entries below differ from those in the screen. For some of these results: No potency is given beside an inconclusive call; the fits are too rough. More than one record can exist for a structure, and the calls need not agree. The source made the active and inactive calls. Calls follow the shape of the dose curve; as a rule, active = well fitted curve in the direction sought with a large enough effect; inconclusive = small, poorly fitted or top-dose-only effect, or another doubt; inactive = no such curve, though single readings can be large; an effect the other way counts as inactive or inconclusive.

Columns and labels:
[1] = Cell Proliferation Assay against the TMD8 Cell Line (Caspase readout at 8 hrs) (AID 651713); conditions: TMD8 lymphoma cells, caspase activation luminescence; caspase activation: at 46.1 µM (top of the series); also: potency is read from the fitted curve at half-maximal effect
Outline: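 TMD8 cells (500/well) in phenol red-free RPMI with 5% FBS were treated with compounds for 8 h at 37C, 5% CO2. Caspase-Glo 3/7 luminescence was read after 15 min at room temperature and normalised to DMSO (0%) and 9.2 uM bortezomib (100%).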

[2] = Identifying Small Molecule Inhibitors of Pancreatic Cancer Stem Cells (A2780, Spheroid) (AID 1259357); conditions: Potency: A2780 spheroid viability; viability (percent of control): at 46.1 µM (top of the series);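 also: spheroids pre-formed over 14 days in stem cell medium on hydrogel; potency is read from the fitted curve at half-maximal effect; compound exposure lasted 48 h before the ATP luminescence read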
Outline: (§1)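 Pre-formed 14-day tumor spheroids or adherent cells dosed and incubated 48 h, 37C, 5% CO2. Viability assessed by CellTiter-Glo.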

[3] = Identifying Small Molecule Inhibitors of Pancreatic Cancer Stem Cells (SN12C, Spheroid) (AID 1259360); conditions: Potency: SN12C spheroid viability; also: potency is read from the fitted curve at half-maximal effect
Outline: as §1

[4] = Identifying Small Molecule Inhibitors of Pancreatic Cancer Stem Cells (A278, Adherent) (AID 1259361); also: nearly all actives have a fitted effect of over 35% in size
Outline: as §1

[5] = Identifying Small Molecule Inhibitors of Pancreatic Cancer Stem Cells (Panc1, Adherent) (AID 1259362); conditions: Potency: viability unless noted; viability, % of control: at 46.1 µM (top of the series) unless noted; also: potency is read from the fitted curve at half-maximal effect;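 as to viability, % of control: compound exposure lasted 48 h before the viability read; plate controls were DMSO-treated cells for no effect and cell-free media wells for full effect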
Outline: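 Luminescent ATP readout (CellTiter-Glo) quantifies surviving cells after a 48 h drug incubation. Normalization uses DMSO wells as no inhibition and media-only wells as full inhibition; bortezomib served as positive control.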

CRL-7250 = normal cell line; assay: Cytotoxic Profiling of Annotated Libraries Using Quantitative High-Throughput Screening (AID 1296008); conditions: Five cell lines viability, CellTiter-Glo ATP luminescence, 48-72 h; max response: active compounds read low; also: nearly all actives have a fitted effect of over 60% in size; also: potency is read from the fitted curve at half-maximal effect; as to max response: % is scaled to controls: 0 for no effect and ±100 for the full control effect
Outline: (§2)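 Cytotoxicity was measured as CellTiter-Glo ATP luminescence, read after 10 min at room temperature. Compound treatment of the cells lasted 48 or 72 hr at 37 degrees Celsius in a qHTS format.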

HEK293 = assay: as above; conditions: Five cell lines viability, CellTiter-Glo ATP luminescence, 48-72 h; max response: active compounds read low
Outline: as §2

[6] = P-glycoprotein substrates identified in KB-8-5-11 adenocarcinoma cell line, qHTS therapeutic library screen (AID 1346987); also: potency is read from the fitted curve at half-maximal effect; nearly all actives have a fitted effect of over 65% in size
Outline: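 KB-8-5-11: colchicine-selected sub-line of KB-3-1 over-expressing P-gp; assay medium lacked colchicine. 72 h drug exposure at 37 degree C, CellTiter-Glo.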

[7] = qHTS of pediatric cancer cell lines to identify multiple opportunities for drug repurposing: Primary screen for Rh18 cells (AID 1347102); also: potency is read from the fitted curve at half-maximal effect; nearly all actives have a fitted effect of over 65% in size
Outline: (§3)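 Cells (500-1,000/well) rested 5 h, then received compounds for 48 h; metabolically active cells were measured by CellTiter-Glo luminescence. Final concentrations spanned up to 46 µM (MIPE, 11-point) or 0.59 nM-46 µM (NPC, 8-point) in primary screens, 11-point in follow-ups.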

[8] = qHTS of pediatric cancer cell lines to identify multiple opportunities for drug repurposing: Primary screen for Rh30 cells (AID 1347107); also: potency is read from the fitted curve at half-maximal effect; nearly all actives have a fitted effect of over 75% in size
Outline: as §3

[9] = qHTS of pediatric cancer cell lines to identify multiple opportunities for drug repurposing: Primary screen for Rh41 cells (AID 1347108); also: potency is read from the fitted curve at half-maximal effect; nearly all actives have a fitted effect of over 70% in size
Outline: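 Following a 5-hour attachment period, cells at 500-1,000/well received compounds and were cultured for 48 hours. CellTiter-Glo was added and luminescence read to estimate viable, metabolically active cells.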

[10] = Quantitative High-Throughput drug screen in 47 multiple myeloma cell lines against the NCATS MIPE library collection: JIM1_ECACC cell viability assay (AID 1918964; also: potency is read from the fitted curve at half-maximal effect)
Outline: (§4)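 We plated 500 myeloma cells per well, pinned in MIPE 4.0 compounds, and incubated for 48 hours at 37C. ATP was then quantified with CellTiter-Glo, with DMSO and media-only wells defining 100% and 0%.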

[11] = Quantitative High-Throughput drug screen in 47 multiple myeloma cell lines against the NCATS MIPE library collection: KMS20_JCRB cell viability assay (AID 1918973); conditions: CellTiter-Glo ATP, 48 h; viability (% of DMSO): at 45.8 µM (top of the series); also: potency is read from the fitted curve at half-maximal effect; nearly all actives have a fitted effect of over 45% in size
Outline: as §4

[12] = Quantitative High-Throughput drug screen in 47 multiple myeloma cell lines against the NCATS MIPE library collection: MOLP8_DSMZ cell viability assay (AID 1918977); conditions: MOLP8 myeloma viability, CellTiter-Glo ATP luminescence, 48 h; viability (% of control): at 45.8 µM (top of the series); also: potency is read from the fitted curve at half-maximal effect; nearly all actives have a fitted effect of over 45% in size
Outline: (§5)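 Plated at 500 cells per well, myeloma lines received MIPE 4.0 compounds by pin tool. Following 48 h culture at 37 °C, CellTiter-Glo luminescence gave viability relative to DMSO and media-only controls.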

[13] = Cell Proliferation Assay against the TMD8 Cell Line (Caspase readout at 16 hrs) (AID 651712); conditions: TMD8 lymphoma cells, caspase activation luminescence; caspase activation: at 46.1 µM (top of the series); also: potency is read from the fitted curve at half-maximal effect
Outline: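 Apoptotic response of TMD8 cells was judged from caspase 3/7 activation following a 16 hour compound incubation at 37 °C. Luminescent signal was converted to percent activity, with DMSO set as 0% and 9.2 uM final bortezomib as 100%.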

[14] = qHTS of pediatric cancer cell lines to identify multiple opportunities for drug repurposing: Primary screen for BT-12 cells (AID 1347101); also: potency is read from the fitted curve at half-maximal effect; nearly all actives have a fitted effect of over 25% in size
Outline: as §3

[15] = Quantitative High-Throughput drug screen in 47 multiple myeloma cell lines against the NCATS MIPE library collection: KMS21BM_JCRB cell viability assay (AID 1918974); conditions: ATP luminescence, 48 h; viability: at 45.8 µM (top of the series); also: potency is read from the fitted curve at half-maximal effect
Outline: as §4

[16] = Quantitative High-Throughput drug screen in 47 multiple myeloma cell lines against the NCATS MIPE library collection: LP1_DSMZ cell viability assay (AID 1918982); also: potency is read from the fitted curve at half-maximal effect; nearly all actives have a fitted effect of over 35% in size
Outline: as §5
Tags tell the direction and shape of the fitted curve.

For CC#C[C@]1(O)CC[C@H]2[C@@H]3CCC4=CC(=O)CCC4=C3[C@H](c3ccc(N(C)C)cc3)C[C@@]21C, which Potency [1] is on record?
Its Potency is active: 23500 nM.

And the Potency [2]?
The Potency was inconclusive.

And the Potency [3]?
The Potency was inconclusive [cytotoxic, partial curve, poor fit].

And the IC50 (viability decrease) [4]?
The IC50 (viability decrease) was inconclusive [cytotoxic, single point].

What about the viability, % of control [5] of the same molecule?
The viability, % of control was inconclusive: 90.4%.

What does the source list for O=C(O)c1cc(-c2ccccc2)nc2ccccc12?
max response (CRL-7250): inactive: -0.325% and inactive: 3.3% and inactive: 1.79%; Potency (HEK293): inconclusive [inhibitor, partial curve]; max response (HEK293): inactive: -6.89%; outcome (HEK293): inactive

Which Potency (CRL-7250) does the source give for N#Cc1ccnc(N2C(=O)CC[C@H]2C(=O)N(c2cncc(F)c2)[C@H](C(=O)NC2CC(F)(F)C2)c2ccccc2Cl)c1 here?
The Potency was inconclusive [inhibitor, full curve].

And the max response (CRL-7250)?
The max response was inactive: -10.6%.

And the Potency (HEK293)?
The Potency was active: 3310 nM.

What does the source list for CN(C)c1cccc(-c2c3c(=O)n(-c4ccccc4Cl)[nH]c3cc(=O)n2C)c1?
Potency [6]: inconclusive [inhibitor, partial curve, poor fit]; Potency (CRL-7250): inconclusive [inhibitor, full curve, poor fit]; Potency (HEK293): active: 5880 nM; outcome (HEK293): inactive

Which results are given for CC(C)C[C@H](NC(=O)CNC(=O)c1cc(Cl)ccc1Cl)B(O)O?
Potency [1]: inconclusive [activator, partial curve, poor fit]; Potency [2]: inconclusive [cytotoxic, full curve, poor fit]; IC50 (viability decrease) [4]: active: 16.6 nM; Potency [5]: active: 187 nM; Potency [6]: active: 1320 nM; Potency [7]: active: 235 nM; Potency [8]: active: 1870 nM; Potency [9]: active: 469 nM; Potency [10]: active: 105 nM; Potency [11]: active: 132 nM; Potency [12]: inconclusive [cytotoxic, full curve]; Potency (HEK293): active: 1180 nM

Which Potency [13] does the source give for CC(C)(C)c1cnc(CSc2cnc(NC(=O)C3CCNCC3)s2)o1 here?
Its Potency is inconclusive [activator, full curve].

And the Potency [1]?
Its Potency is active: 93.5 nM.

What about the Potency [2] of the same molecule?
The Potency was inconclusive [cytotoxic, full curve].

And the Potency [3]?
The Potency was inconclusive [cytotoxic, full curve].

What about the IC50 (viability decrease) [4] of the same molecule?
The IC50 (viability decrease) was inconclusive [cytotoxic, full curve].

What about the Potency [14] of the same molecule?
The Potency was active: 432 nM.

What about the Potency [7] of the same molecule?
Its Potency is inconclusive [cytotoxic, full curve].

What about the Potency [15] of the same molecule?
Its Potency is active: 66.2 nM.

And the Potency [12]?
The Potency was active: 83.3 nM.

And the Potency [16]?
The Potency was active: 105 nM.

And the Potency (HEK293)?
Its Potency is active: 418 nM.

What does the source list for CN(C)CC=CC(=O)Nc1cc2c(Nc3ccc(F)c(Cl)c3)ncnc2cc1O[C@H]1CCOC1?
Potency [13]: inconclusive [activator, full curve]; Potency [1]: inconclusive [activator, single point]; Potency [2]: inconclusive [cytotoxic, single point]; Potency [3]: active: 23500 nM; Potency [5]: active: 1480 nM; Potency [6]: active: 9350 nM; Potency [14]: active: 21700 nM; Potency [7]: active: 14800 nM; Potency [8]: active: 14800 nM; Potency [10]: active: 2960 nM; Potency [15]: active: 166 nM; Potency [16]: inconclusive [cytotoxic, partial curve, poor fit]; Potency (CRL-7250): active: 3320 nM

With COC(=O)C1=C(C)NC(C)=C(C(=O)OC(C)(C)CN(C)CCC(c2ccccc2)c2ccccc2)C1c1cccc([N+](=O)[O-])c1 (centres undefined) as the molecule, how does the Potency [14] read?
The Potency was inconclusive [cytotoxic, single point].

What about the Potency [7] of the same molecule?
The Potency was inconclusive [cytotoxic, single point].

And the Potency [8]?
Its Potency is inconclusive [cytotoxic, partial curve, poor fit].

What about the Potency [9] of the same molecule?
The Potency was inconclusive [cytotoxic, single point].

And the Potency (CRL-7250)?
Its Potency is inconclusive [inhibitor, single point].

What about the Potency (HEK293) of the same molecule?
The Potency was active: 10600 nM.

With CC1(C)CC[C@]2(C(=O)O[C@@H]3O[C@H](CO)[C@@H](O)[C@H](O)[C@H]3O)CC[C@]3(C)C(=CCC4[C@@]5(C)CC[C@H](O[C@H]6O[C@H](CO)[C@@H](O)[C@H](O[C@@H]7O[C@H](CO)[C@@H](O)[C@H](O)[C@H]7O)[C@H]6O)C(C)(C)C5CC[C@]43C)[C@@H]2C1 (some centres undefined) as the molecule, how does the max response (CRL-7250) read?
The max response was inactive: -1.95%.

What about the max response (HEK293) of the same molecule?
Its max response is inactive: -4.45%.

With CC(=O)OCCC(C)CCC1C(C)(O)CCC2C(C)(C)CCCC21C (centres undefined) as the molecule, how does the max response (CRL-7250) read?
The max response was inactive: -8.91%.

And the outcome (HEK293)?
The outcome was “inactive”.

For COc1c2c(c(CO)c3c1C(=O)OC3)OC1(C)CCC3(O)C(C)(C)OC(=O)CCC3(C)C1C2 (centres undefined), which Potency (CRL-7250) is on record?
Its Potency is inconclusive [inhibitor, single point].

What about the outcome (HEK293) of the same molecule?
Its outcome is “inactive”.
